# Data from PubChem BioAssay AID886 (National Center for Advancing Translational Sciences (NCATS), 2007).
# Several values for one entry are separate records, joined by “and”; a condition that tells them apart may be missing. Equal values may be shown once. Hit rate of the full screen: of about 73,000 compounds, about 2,500 (3.4%) were called active. The shares of active, inactive and inconclusive entries below differ from those in the screen. The call rests on the fitted dose curve; in most records, active means well fitted inhibition curve with a large enough effect; inconclusive means small, poorly fitted or top-dose-only effect; inactive means no such curve, though single readings can be large or run the other way. Where the call is inconclusive, the potency comes from a doubtful curve fit.
# Target: 3-hydroxyacyl-CoA dehydrogenase type-2 (Homo sapiens) (UniProt Q99714)
# Assay: qHTS Assay for Inhibitors of HADH2 (Hydroxyacyl-Coenzyme A Dehydrogenase, Type II); further: nearly all actives have a fitted effect of over 60% in size
# Settings: recombinant HADH2, NADH fluorescence, beta-hydroxybutyryl-CoA; activity change, negative = inhibition: at 57.1 µM (top of the series)
# Summary of the method: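 E. coli-expressed His-tagged HADH2 tested at 20 nM in alkaline Tris buffer (pH 9.0); oxidation of 90 uM beta-hydroxybutyryl-CoA with 1 mM NAD+ tracked fluorimetrically for 4 min.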
# On the % scale 0 is the no-effect control and ±100 the full control effect; potency means the concentration at half of the fitted maximal effect; tags describe the fitted curve by direction and shape.
# Chain of UniProt Q99714 (Q99714 whole entry, looked up): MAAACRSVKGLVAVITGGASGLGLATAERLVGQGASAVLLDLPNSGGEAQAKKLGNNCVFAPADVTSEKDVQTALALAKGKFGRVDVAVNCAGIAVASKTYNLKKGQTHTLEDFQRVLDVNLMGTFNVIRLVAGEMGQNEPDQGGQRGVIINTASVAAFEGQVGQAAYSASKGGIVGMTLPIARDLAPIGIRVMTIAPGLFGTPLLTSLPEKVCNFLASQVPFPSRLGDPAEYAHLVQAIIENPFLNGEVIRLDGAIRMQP
# Chain of UniProt Q99714 (Q99714 whole entry, looked up): as above
SMILES,Potency,"activity change, negative = inhibition"
COC(=O)c1c(C)n(-c2ccc(OC)cc2)c2ccc(O)cc12,"inconclusive: 31.6 µM [inhibitor, single point]",
COC(=O)c1ccc2[nH]c(C)cc(=O)c2c1,"inconclusive: 25.1 µM [inhibitor, single point]",
CC(=O)OCC1=C(C(=O)O)N2C(=O)[C@@H](NC(=O)Cc3cccs3)[C@@H]2SC1,"inconclusive: 12.6 µM [inhibitor, partial curve] and inconclusive: 10 µM [inhibitor, partial curve]",
CCOC(=O)c1nnn(-c2nonc2N)c1-c1cccs1,inactive,
COC(=O)c1cccc(OCC(O)Cn2cnc3cc(C)c(C)cc32)c1 (configuration not stated),"inconclusive: 0.794 µM [inhibitor, partial curve]",
CCCC(=O)Nc1cccc(-c2nc3ccccc3o2)c1,"inconclusive: 39.8 µM [inhibitor, single point]",
COc1ccc(S(=O)(=O)Nc2ccccc2C(=O)NCc2ccco2)cc1,"inconclusive: 31.6 µM [inhibitor, single point]",
CCN(CC)S(=O)(=O)c1cccc(-c2nnc(SCC(=O)c3ccc(Cl)s3)n2C)c1,"inconclusive: 25.1 µM [inhibitor, partial curve]",
CN(C(=O)COc1cc(=O)n(C)c2ccccc12)c1ccc(Cl)cc1,"inconclusive: 25.1 µM [inhibitor, single point]",
O=C(O)/C=C\C=C/c1ccc2c(c1)OCO2,"inconclusive: 3.98 µM [inhibitor, single point]",
O=C(CN1CCOCC1)N1CCN(C(=O)CN2CCOCC2)CC1,"inconclusive: 1 µM [inhibitor, single point]",
COc1cc(OC)c2c(C)cc(=O)oc2c1,active: 3.98 µM,
CC(=O)[C@@H]1[C@H]2[C@@H](C(=O)[C@H]3OC[C@H]2O3)[C@@H]2C=Cc3ccccc3N12,"inconclusive: 20 µM [inhibitor, partial curve]",
CCOC(=O)c1sc(NC(=O)c2ccc3ncsc3c2)nc1C,"inconclusive: 31.6 µM [inhibitor, single point]",
CC1(C)Cc2nc3oc4c(=S)nc[nH]c4c3cc2CO1,"inconclusive: 2.51 µM [inhibitor, full curve]",
Nc1sccc1C(=O)c1ccccc1,"inconclusive: 25.1 µM [inhibitor, single point]",
O=C(NCCN1CCOCC1)c1ccccc1Oc1ccccc1,inactive,
COCc1cc(C)nc2sc3c(=O)n(Cc4ccco4)nnc3c12,inactive,
O=C(Nc1sc2c(c1C(=O)NC1CCCCC1)CCC2)c1ccco1,"inconclusive: 6.31 µM [inhibitor, single point]",
CC1=CC(C#N)(C#N)C(C#N)(C#N)C(c2ccccc2)N1 (configuration not stated),active: 25.1 µM,
CN1CCN(C(=O)c2sc(=S)n(-c3ccccc3)c2N)CC1,active: 0.199 µM,
N#Cc1c(-c2ccco2)nc(SCC(=O)Nc2cccc(Cl)c2)[nH]c1=O,"inconclusive: 20 µM [inhibitor, single point]",
Nc1nnc(COc2cccc(C(F)(F)F)c2)s1,"inconclusive: 31.6 µM [inhibitor, single point]",
CCOc1ccc(C2C(C#N)=C(N)SC(N)=C2C#N)cc1OCC,active: 7.94 µM,

SMILES,Potency,"activity change, negative = inhibition"
COc1ccc(-c2c(C)oc3c(CN4CCN(CCO)CC4)c(O)ccc3c2=O)cc1OC,"inconclusive: 31.6 µM [inhibitor, single point]",
CCCn1c(=O)c2ccccc2n2c(SCCOc3ccccc3)nnc12,inactive,
CCOC(=O)c1cc(-c2ccccc2)sc1N,active: 2 µM,
O=C(CN1CCN(C2CCCCC2)CC1)c1ccc2cc[nH]c2c1,"inconclusive: 39.8 µM [inhibitor, single point]",
CCn1c(CSc2nccn2C)nc2cc(C(=O)O)ccc21,"inconclusive: 31.6 µM [inhibitor, single point]",
COc1ccc2oc(-c3ccccc3)c(C(=O)N3CCOCC3)c2c1,active: 31.6 µM,
Cc1cc(-c2ccco2)n(CC(=O)O)n1,inactive,
CC(C)Cn1c(=O)c2c(c3ccccc31)OC(C)C(=O)N2 (configuration not stated),inactive,
O=C(COC(=O)c1ccccc1NC(=O)c1ccco1)NCCC1=CCCCC1,inactive,
CCN1CCCC1CNC(=O)c1ccc2c(=O)n(CCOC)c(=O)[nH]c2c1 (configuration not stated),"inconclusive: 25.1 µM [inhibitor, single point]",
COC(=O)CSc1nc2ccc(NC(=O)CSc3nnnn3Cc3ccccc3)cc2s1,"inconclusive: 39.8 µM [inhibitor, single point]",
O=C(NCCO)c1cccc(S(=O)(=O)N2CCCCC2)c1,"inconclusive: 7.94 µM [inhibitor, single point]",
O=C(Nc1nc2c(s1)CCc1ccccc1-2)c1cccs1,inactive,
Cc1ccc(/C=c2/sc3nnc(-c4ccccc4Cl)n3c2=O)o1,"inconclusive: 31.6 µM [inhibitor, single point]",
O=C(COc1ccccc1)Nn1cnc2ccccc21,"inconclusive: 15.8 µM [inhibitor, partial curve]",
O=C(c1cnn2c1NC(c1ccc(Br)cc1)CC2C(F)(F)F)N1CCN2CCCC2C1 (configuration not stated),inactive,
COC(=O)c1ccccc1NC(=O)Cn1c(=O)oc2ccc(Cl)cc21,active: 25.1 µM,
Cc1sc2nc(SCC(=O)NCCOCCO)n(C)c(=O)c2c1C,,inactive: -0.557% [at 11.4 µM]
c1ccc(CCn2nnnc2CN2CCc3ccccc32)cc1,inactive,
Cc1cccc(N2CCN(C(=O)CS(=O)(=O)Cc3nc(-c4ccccc4F)oc3C)CC2C)c1 (configuration not stated),"inconclusive: 39.8 µM [inhibitor, single point]",
COc1ccc(-c2cc3nc4c(c(=O)n3[nH]2)CCC4)cc1,"inconclusive: 0.501 µM [inhibitor, partial curve, poor fit]",
CCn1ncc(C2=NOC(C(=O)NCc3ccc(Cl)cc3)C2)c1C (configuration not stated),inactive,
C=CCc1c(C)nc(SC)nc1Nc1ccc(C(C)=O)cc1,"inconclusive: 15.8 µM [inhibitor, partial curve]",
